# In the BET-seq Pho4 binding data (Le et al. 2018):
# Some of the results follow. The energies were worked out here from pooled read counts, against the library average; single values are noisy.
# Molecular target: T1, Pho4 (S. cerevisiae) (UniProt P07270)
# T1 sequence: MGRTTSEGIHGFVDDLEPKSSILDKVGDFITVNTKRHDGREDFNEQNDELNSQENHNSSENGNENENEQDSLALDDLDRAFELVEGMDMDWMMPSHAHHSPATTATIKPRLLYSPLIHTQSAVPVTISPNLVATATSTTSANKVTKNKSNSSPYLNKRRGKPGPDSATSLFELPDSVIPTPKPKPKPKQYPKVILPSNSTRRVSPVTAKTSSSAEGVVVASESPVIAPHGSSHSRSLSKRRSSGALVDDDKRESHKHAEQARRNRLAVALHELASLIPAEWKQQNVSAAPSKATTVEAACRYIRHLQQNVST
# Assay: relative binding free energy (BET-seq); higher = weaker binding
# Settings: reference: library average
row,Sequence,relative binding free energy [kcal/mol]
1,AGTATCACGTGTAATA,0.21
2,GTTGACACGTGCTGTA,-0.04
3,TTGTACACGTGGGGAC,-0.18
4,GGGCGCACGTGGCAGG,-0.19
5,GTGTCCACGTGGGCTT,-0.1
6,TGCAGCACGTGTTAAT,-0.01
7,AGTGTCACGTGTCGTA,0.1
8,GTTTTCACGTGGCCGT,0.26
9,GAGTGCACGTGCGAGG,0.08
10,TAAAACACGTGGATGT,0.04
11,GATAGCACGTGGTGCT,-0.04
12,TGTGACACGTGGCTCT,0.09
13,TAAGTCACGTGTAAAA,0.25
14,GTATTCACGTGACTTT,0.24
15,TGACTCACGTGGGTGG,-0.01
16,TCTAGCACGTGTCGGG,-0.08
17,GGTGACACGTGTCGAT,0.09
18,GTAAGCACGTGATGAG,0.12
19,ACGGGCACGTGGAGTT,-0.03
20,GTGTACACGTGAAAGG,0.19
21,TTTTGCACGTGCCAGT,-0.18
22,ATGCTCACGTGGTGTT,0.18
23,GGGTTCACGTGTTTAG,0.2
24,GTGTTCACGTGAGGTT,0.46
25,ACGGTCACGTGTGGAT,0.21

row,Sequence,relative binding free energy [kcal/mol]
1,GTGTCCACGTGCTGTG,0.16
2,AATGTCACGTGATGTG,0.15
3,ATAATCACGTGGGCGA,0.11
4,TTCTGCACGTGTACGT,0.05
5,ATATTCACGTGCGCGG,0.13
6,CATTGCACGTGGAGTT,-0.02
7,AAATTCACGTGTTTGA,0.28
8,TGGCTCACGTGTAGAG,0.19
9,GCTTGCACGTGAAGGG,0.28
10,TGATCCACGTGTGGGA,0.3
11,AAGTGCACGTGTTGAT,0.13
12,AAGGACACGTGTAGTT,0.08
13,TAATACACGTGCTGGG,-0.12
14,GATGTCACGTGGGCGG,0.04
15,AGAGACACGTGTTGGT,0.15
16,AGGTTCACGTGGTTCA,0.21
17,GTTTGCACGTGGAAGG,0.21
18,TGGGGCACGTGTGATG,0.01
19,AGGTTCACGTGGGTAG,0.18
20,GGTTACACGTGACGGG,0.22
21,TACCTCACGTGTGTTT,0.37
22,TCTATCACGTGGGAGA,0.21
23,ATTATCACGTGGGTGC,-0.03
24,CGGGGCACGTGGGCGC,-0.33
25,AATTGCACGTGATTGA,0.03

row,Sequence,relative binding free energy [kcal/mol]
1,ATCTTCACGTGGTGGG,0.27
2,AGGGTCACGTGGAGGC,0.06
3,ATTTCCACGTGGATGG,-0.01
4,TGGCACACGTGTAGGC,0.12
5,ATTGTCACGTGTAGTA,0.08
6,GGCGTCACGTGTTGGG,0.17
7,ACTTGCACGTGGTATG,-0.13
8,GTAACCACGTGGGGGA,-0.08
9,GACGGCACGTGGTGGG,-0.04
10,GGCGGCACGTGGACCG,0.01
11,TAGGGCACGTGTATCG,-0.01
12,GTGGTCACGTGTATCA,0.17
13,CGTAGCACGTGGCGGC,-0.12
14,AGGGGCACGTGCGGAG,-0.3
15,GTTGTCACGTGGGCCT,-0.07
16,AGGGGCACGTGCAATA,-0.02
17,TGGAACACGTGGTTAT,0.09
18,ATGGGCACGTGTTAGG,-0.08
19,CGTTGCACGTGGGCTA,-0.16
20,GTGGTCACGTGTGCCG,-0.06
21,TGTGCCACGTGTCTGG,-0.04
22,TATGGCACGTGACTTT,-0.06
23,CTTAGCACGTGAGGTT,0.1
